Sequences with one replicate were seen in a single cluster, so their values are uncertain.
System: ATP
Experiment: switch fluorescence ratio, 500 uM ATP over buffer (Cy3 cluster intensity, sum of 5 cycles each) (fold (ratio)); higher = stronger signal-on switching upon ATP binding; sequences stand for … in TCGTCGGCAGCGTCAGATGTGTATAAGAGACAGTTTTTTTTTTTTTTTTTTTTTTTTT…TC
Details: aptamer strand: ATP DNA aptamer (quencher-CACCTGGGGGAGTATTGCGGAGGAAGG + anchor), 100 nM annealed; ATP concentration: 500 uM; one replicate
Procedure, shortened: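 Cy3-labelled switching-strand clusters on a modified Illumina MiSeq flow-cell were annealed to 100 nM quencher-labelled ATP aptamer and imaged first in selection buffer, then after 15 min with 500 uM ATP at 22 °C. NaOH stripping and re-annealing separated each of five buffer/ATP cycles, and clusters outside 100-1000 RFU were excluded. The fluorescence ratio sums target-cycle Cy3 intensity over buffer-cycle Cy3 intensity per cluster and averages it per switch-domain sequence.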
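Note: ATP exposure 15 min at 22 °C before imaging.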

| Sequence | switch fluorescence ratio |
| --- | --- |
| GTGCGAGGAG | 1.03 |
| CTCATTAGAC | 1.1 |
| AAATAACCTT | 1.52 |
| CTCCGAAATT | 5.25 |
| TGTCGATATG | 0.988 |
| CAGCTAGTCA | 1.05 |
| TACCGATTAA | 0.995 |
| TGTCGTGCGC | 0.995 |
| GCGCTGAGGA | 1 |
| ACGTGATATG | 1.05 |
| AACCTTATGA | 1.18 |
| AATTAGTTAC | 1.02 |
| GCTGGCTTCT | 1.07 |
| ATGGTATCTG | 0.972 |
| TCGCAGAGGG | 0.981 |
| TGCGGGGTAG | 1.02 |
| AAGGTCCTTT | 0.998 |
| ATAGGGCAGT | 0.974 |
| CGCGTGTAGC | 1.05 |
| CATGCAGGGA | 0.972 |
| GAGCAGCGAC | 1.03 |
| AGTAGACAAT | 0.987 |
| GCGCTAACCT | 1.53 |
| TTCGCTACGC | 1.07 |
| TTGCACCCCT | 1.07 |
| GAGAGGACGT | 1.09 |

| Sequence | switch fluorescence ratio |
| --- | --- |
| AGTCATCTCA | 0.925 |
| TTGTGCTAGT | 0.988 |
| CAGGGGCACT | 1.04 |
| TGGACATTAG | 0.998 |
| ATCACCCCTA | 1.22 |
| CTCGCTTTGT | 1.01 |
| CGGTAAGGGT | 1.03 |
| CCAGGCCGCG | 1.03 |
| GTGCGGAGCG | 0.97 |
| TCGGATACTG | 1.07 |
| GTAATTTTTG | 0.979 |
| CCTCTAATG | 1.42 |
| TACAGCGTG | 0.943 |
| TAGAAAGTT | 0.986 |
| AAGAGGGTGT | 1.04 |
| AAGTTTGAGC | 0.902 |
| TTGTGGGTCA | 1.03 |
| CGTAATGAG | 0.974 |
| ATAGCCCATT | 0.962 |
| AGCCTGGATT | 1.01 |
| ACTTTAAAAA | 1.31 |
| TAACCGGTTG | 1.05 |
| TCGCTCGCTA | 1.72 |
| AGTTCTCTTG | 0.968 |
| GCTTGACCG | 1.03 |
| ACCCACGGGT | 1.29 |

| Sequence | switch fluorescence ratio |
| --- | --- |
| TGCATTTGTG | 0.971 |
| GGCATTAACT | 1.03 |
| GAAGATGGAA | 1.01 |
| CGTGCGGGCC | 1.05 |
| GCTAAACGGC | 1.09 |
| GTGCCACAGG | 1.1 |
| CCTGGGTGGA | 0.995 |
| GGATCGGCTA | 0.994 |
| AATTCGGAA | 1.05 |
| TGCACTTTAA | 1.03 |
| TCGCTTGT | 1.05 |
| AAACTCGCCC | 1.14 |
| GCCGTTGT | 0.971 |
| CGTCCTGGAC | 0.971 |
| AGAGCCCAG | 1.01 |
| TGGGTCTGTG | 0.956 |
| CAGGAGTTA | 1.03 |
| CGTGTAGGCC | 0.984 |
| TCTTTATAA | 0.988 |
| GCCATTGGTG | 1.15 |
| GTAGCTTGTG | 0.988 |
| CTGCAGTGGA | 1.03 |
| ATCCGCGGCG | 1.14 |
| GCTATTTCTT | 1.03 |

— the supplement of paper PMC10126150
